From PubChem BioAssay AID1460 (National Center for Advancing Translational Sciences (NCATS), 2008)
“And” between values parts separate entries of the source, which are not always exact repeats. Equal values may be shown once. About 5,800 (2.1%) of roughly 270,000 compounds were called active. Inconclusive results, whose numbers are uncertain, are shown with a selection of clear calls. The call rests on the fitted dose curve; in most records, active means well fitted inhibition curve with a large enough effect; inconclusive means small, poorly fitted or top-dose-only effect; inactive means flat fitted curve, though single readings scatter. Potencies beside an inconclusive call are fits to weak or partial responses and may not hold up.

What follows are compounds tested against Microtubule-associated protein tau (Homo sapiens) (UniProt P10636) (assay: qHTS for Inhibitors of Tau Fibril Formation, Thioflavin T Binding). Details: recombinant tau K18 P301L (four-repeat tau fragment), heparin-induced fibrillization, ThT fluorescence; series mostly up to 57.4 µM; activity, negative = inhibition: at the top concentration.
Outline: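 Aggregation was driven by heparin (20 uM final) acting on recombinant tau […] bearing P301L in 100 mM sodium acetate pH 7; fibrils were detected with Thioflavin T.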
Further: nearly all actives have a fitted effect of over 55% in size.
On the % scale 0 is the no-effect control and ±100 the full control effect; potency means the concentration at half of the fitted maximal effect; tags describe the fitted curve by direction and shape.

UniProt P10636, sequence (P10636 whole entry, looked up, the tested form may be a part): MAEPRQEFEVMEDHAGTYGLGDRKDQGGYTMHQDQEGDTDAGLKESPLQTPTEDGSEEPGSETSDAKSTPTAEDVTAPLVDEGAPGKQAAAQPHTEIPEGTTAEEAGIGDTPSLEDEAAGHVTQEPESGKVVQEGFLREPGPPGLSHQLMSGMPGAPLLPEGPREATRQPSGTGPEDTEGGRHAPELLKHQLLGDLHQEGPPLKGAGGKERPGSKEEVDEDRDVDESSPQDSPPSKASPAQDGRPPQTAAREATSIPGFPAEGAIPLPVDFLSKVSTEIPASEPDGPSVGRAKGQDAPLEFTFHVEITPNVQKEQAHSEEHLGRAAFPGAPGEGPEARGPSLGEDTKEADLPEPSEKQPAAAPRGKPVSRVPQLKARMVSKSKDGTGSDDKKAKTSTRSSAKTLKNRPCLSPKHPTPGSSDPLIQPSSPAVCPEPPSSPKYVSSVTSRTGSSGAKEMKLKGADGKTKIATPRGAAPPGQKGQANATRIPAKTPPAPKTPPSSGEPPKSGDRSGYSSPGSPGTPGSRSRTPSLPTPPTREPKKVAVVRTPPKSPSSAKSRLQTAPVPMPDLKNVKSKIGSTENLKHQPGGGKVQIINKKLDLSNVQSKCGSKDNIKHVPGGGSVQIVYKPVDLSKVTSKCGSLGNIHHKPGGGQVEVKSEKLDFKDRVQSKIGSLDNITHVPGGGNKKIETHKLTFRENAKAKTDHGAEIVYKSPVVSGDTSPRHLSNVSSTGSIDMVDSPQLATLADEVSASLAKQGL

SMILES | Potency | activity, negative = inhibition
Cc1nc(-c2ccc(NC(=O)c3ccccc3Br)cc2)cs1 | inconclusive: 31.6 µM [inhibitor, partial curve] | 
COc1cc2c(cc1OC)CN(C(=O)c1ccc([N+](=O)[O-])o1)CC2 | inconclusive: 25.1 µM [inhibitor, partial curve] | 
Cc1ccc(C)c(N2CCN(C(=O)C3CCN(S(=O)(=O)c4cn(C)cn4)CC3)CC2)c1 |  | inactive: 2.12%
COc1ccccc1NS(=O)(=O)c1cc(NC(=O)c2sccc2C)ccc1N1CCOCC1 |  | inactive: -1.17%
CCOc1ccccc1NC(=O)C(Cc1ccccc1)NS(=O)(=O)c1ccc(Br)s1 (stereo unspecified) | inconclusive: 0.708 µM [inhibitor, full curve, poor fit] | 
COC(=O)C(NC(=O)COc1ccccc1)(Nc1nc2c(s1)CCCC2)C(F)(F)F (stereo unspecified) |  | inactive: 5.47%
COc1ccc(C(CC(=O)O)NC(=O)c2ccccc2[N+](=O)[O-])cc1 (stereo unspecified) |  | inactive: -1.69%
Fc1ccccc1-c1nc(-c2ccccc2)oc1NC1CCCCC1 | inconclusive: 0.316 µM [inhibitor, partial curve, poor fit] | 
COc1ccccc1C(=O)NCc1ccc2c(c1)CCN2C(=O)c1ccncc1 |  | inactive: -1.83%
O=C(CSc1cccc[n+]1[O-])Nc1cc(S(=O)(=O)N2CCOCC2)ccc1Cl |  | inactive: 7.52%
O=C(CN1C(=O)c2ccccc2C1=O)NN1C(=O)c2ccccc2C1=O | inconclusive: 3.55 µM [inhibitor, partial curve] | 
COc1ccc(Cn2nnnc2C(c2cc3ccc(OC)cc3[nH]c2=O)N2CCCCCC2)cc1 (stereo unspecified) | inconclusive: 17.8 µM [inhibitor, partial curve] | 
CCc1ccc(S(=O)(=O)c2nnn3c2nc(NCc2cccs2)c2sccc23)cc1 | inconclusive: 39.8 µM [activator, single point] | 
CCn1c(C)c(C)c2cc(C(=O)NCCc3cc(OC)c(OC)c(OC)c3)ccc21 | inconclusive: 28.2 µM [inhibitor, partial curve] | 
Cc1ccc(C(=O)NCCNc2ccc(Cl)cc2[N+](=O)[O-])o1 | active: 15.8 µM | 
Cc1cccc(C(=O)Nc2cccc(C(=O)OCc3cc(=O)n4c5c(sc4n3)CCCC5)c2)c1 | inconclusive: 1.26 µM [inhibitor, full curve] | 
O=C(NCc1cccs1)c1ccc(N2CCCCC2)nc1 |  | inactive: 3.16%
COc1ccc(N2CCN(c3nc(Cl)nc(Nc4ccc(F)cc4)n3)CC2)cc1 | inconclusive: 3.16 µM [inhibitor, full curve] | 
CCCCNC(=S)N1CCN(c2ccc(C(C)=O)cc2)CC1 | inconclusive: 20 µM [inhibitor, partial curve] | 
Oc1ccc2ccccc2c1N=Nc1nccs1 | active: 7.94 µM | 
Cc1ccccc1-c1cncnc1Nc1ccc(F)cc1 | inconclusive: 7.94 µM [inhibitor, single point] | 
Cc1ccc2[nH]c3c(c2c1)CCCC3=O |  | inactive: -23%
CC(C)(C)C1CC=C2C(C#N)=C(N)C(C#N)(C#N)C(c3cccs3)C2C1 (stereo unspecified) | inconclusive: 28.2 µM [inhibitor, partial curve] | 
COc1cc(OC)cc(-c2nc3nc(C)c(CCC(=O)Nc4ccc(Cl)cc4)c(C)n3n2)c1 |  | inactive: -14.7%

SMILES | Potency | activity, negative = inhibition
COc1cccc(C(=O)Nc2ccc3oc(-c4ccc5ccccc5c4)nc3c2)c1 | inconclusive: 20 µM [activator, single point] | 
Cc1cccc(Cn2ncc(Cl)c(Cl)c2=O)c1 |  | inactive: -11.1%
COC(=O)c1nn(-c2ccccc2)c(-c2ccccc2)c1C(=O)c1ccccc1 | inconclusive: 10 µM [inhibitor, partial curve, poor fit] | 
Cc1ccc(SCc2[nH]nc3c2C(c2ccco2)C(C#N)=C(N)O3)cc1 (stereo unspecified) | active: 20 µM | 
CC(/C=N/Nc1nnc(C)c(=O)[nH]1)=C\c1ccccc1 |  | inactive: 2.01%
O=C(Nc1ccc2nc(SCC(=O)N3CCOCC3)sc2c1)c1ccc(F)cc1 |  | inactive: -4.3%
Cc1cc(C)c(Nc2nn3c(=O)c4cc5c(cc4nc3s2)OCO5)c(C)c1 | active: 28.2 µM | 
CCc1ccc(-c2nc(CSCC(=O)N3CCN(c4ccccn4)CC3)c(C)o2)cc1 | inconclusive: 20 µM [inhibitor, partial curve] | 
CCN(C=NC1=NN(c2cccc(C(F)(F)F)c2)CC1)CC | inconclusive: 28.2 µM [inhibitor, single point] | 
COc1cc(C2C(C(=O)OC(C)C)=C(C)Nc3[nH]c(=O)[nH]c(=O)c32)ccc1O (stereo unspecified) |  | inactive: -0.476%
COc1cc(OC)c2c(c1O)OC(c1ccccc1)CC2=O (stereo unspecified) | inconclusive: 0.562 µM [inhibitor, single point] | 
C=CCn1c(N2CCN(c3ccc(OC)cc3)CC2)nc2c1c(=O)n(C)c(=O)n2C | inconclusive: 7.94 µM [inhibitor, full curve] | 
O=C(CN1CCC(N2CCCCC2)CC1)N1CCCc2ccccc21 |  | inactive: -1.79%
O=C(Cc1ccc(-n2c(=O)[nH]c3ccccc3c2=O)cc1)N1CCN(c2cccc(Cl)c2)CC1 | inconclusive: 20 µM [inhibitor, partial curve] | 
CN(C)C(CNC(=O)C1CCN(S(=O)(=O)c2ccccc2)CC1)c1ccccc1 (stereo unspecified) | inconclusive: 2 µM [activator, partial curve] | 
CCOCC(=O)Nc1nnc(COCC)s1 |  | inactive: 0.99%
COc1cccc(-c2cncnc2-n2ccnc2)c1 | inconclusive: 0.0562 µM [inhibitor, partial curve, poor fit] | 
Cc1ccc(S(=O)(=O)N(C)C)cc1NC(=S)Nc1ccc2cn[nH]c2c1 | inconclusive: 22.4 µM [inhibitor, partial curve, poor fit] | 
CCC(=O)c1ccc(OCCSc2ncccn2)cc1 | inconclusive: 14.1 µM [inhibitor, partial curve, poor fit] | 
COc1ccc(-c2c3c(=O)n(C)c(=O)n(C)c3c3c(-c4ccccc4)nc4ccccc4n23)cc1 | inconclusive: 10 µM [inhibitor, partial curve] | 
CCOc1ccc(C2C3=C(CCCC3=O)OC(N)=C2[N+](=O)[O-])cc1 (stereo unspecified) | inconclusive: 44.7 µM [inhibitor, single point] | 
Cc1nn(-c2ccc([N+](=O)[O-])cc2)c2c1C(c1cccc(Br)c1)N1C(=N2)C(=O)Nc2ccccc21 (stereo unspecified) | inconclusive: 3.55 µM [inhibitor, full curve] | 
O=C(Nc1ccccc1)/C(=C\c1ccc2c(c1)OCO2)NC(=O)c1ccco1 | inconclusive: 15.8 µM [inhibitor, partial curve] | 
CCCC[C@H]1C[C@@H]1[C@@H]1N(P(=O)(c2ccccc2)c2ccccc2)[C@](CO)(c2ccccc2)CC12CC2 | inconclusive: 22.4 µM [inhibitor, partial curve] | 

SMILES | Potency | activity, negative = inhibition
CCOC(=O)OCC1OC(C#Cc2ccccc2)C=CC1Oc1cccc(N(C)C)c1 (stereo unspecified) | inconclusive: 3.55 µM [inhibitor, partial curve] | 
c1ccc(CN=C2NN=C(c3ccccc3)CS2)cc1 | inconclusive: 31.6 µM [inhibitor, single point] | 
COc1cccc(NC(=O)C(=O)NCCc2sc(-c3cccc(C)c3)nc2C)c1 | inconclusive: 2.82 µM [inhibitor, full curve] | 
Cn1c(=Nc2ccc(N3CCOCC3)cc2)ccc2ccccc21 |  | inactive: -15.4%
O=C1/C(=C/c2cccs2)Cc2ccccc21 | inconclusive: 17.8 µM [inhibitor, partial curve] | 
CCN(CC)S(=O)(=O)c1ccc(N2CCOCC2)c(NS(=O)(=O)c2ccc(C)c(C)c2)c1 |  | inactive: -4.8%
CC(C)Nc1nc(NC(C)C)nc(SCCOC(=O)Nc2ccc(Cl)cc2Cl)n1 | inconclusive: 17.8 µM [inhibitor, single point] | 
CCOC(=S)SCc1cn2cccc(C)c2n1 | inconclusive: 35.5 µM [inhibitor, single point] | 
O=c1oc2c3c4c(cc2c2c1CCC2)OCCN4CCC3 | inconclusive: 17.8 µM [inhibitor, partial curve] | 
COc1ccc(-c2[nH]c(-c3ccccc3)nc2SCC(=O)NC2CCCC2)cc1 | inconclusive: 39.8 µM [inhibitor, single point] and inconclusive: 28.2 µM [inhibitor, single point] | 
COc1cccc(N2CCN(CC(=O)C34CC5CC(CC(C5)C3)C4)CC2)c1 | inconclusive: 0.0501 µM [inhibitor, full curve, poor fit] | 
Oc1c(C(Nc2cccc(C(F)(F)F)c2)c2cccnc2)ccc2cccnc12 (stereo unspecified) | inconclusive: 22.4 µM [inhibitor, partial curve] | 
Cc1cc(=O)[nH]c(N2CCCC2)n1 |  | inactive: -3.86%
CC1CCCCN1CC(=O)Nc1ccc(N2CCCCCC2)cc1 (stereo unspecified) |  | inactive: 8.9%
COc1ccc(NC(=O)Cn2c(=O)n(CCc3ccccc3)c(=O)c3sc4ccccc4c32)cc1 |  | inactive: 4.67%
Cc1cc(C)nc(-n2nc(C)c3c2NC(=O)CC3c2ccccc2OC(C)C)n1 (stereo unspecified) |  | inactive: -9.39%
CCOc1cc(C=O)ccc1OCCSc1ccc(C)cc1 | inconclusive: 12.6 µM [inhibitor, partial curve] | 
Cc1ccc2ccccc2c1NC(=O)Cn1nnc(-c2cccnc2)n1 |  | inactive: -2.19%
CC1CC(C)(C)CC2(C1)NC(=S)N(c1ccccc1)N2 (stereo unspecified) |  | inactive: -20.3%
c1ccc(Cn2nnnc2C(c2ccncc2)N2CCOCC2)cc1 (stereo unspecified) |  | inactive: 3.96%
CC(=O)c1ccc(C(=O)Nc2ccc(N3CCOCC3)cc2)cc1 | active: 2.24 µM | 
O=C(N/N=C/C=C\c1cccc([N+](=O)[O-])c1)c1ccccn1 | inconclusive: 6.31 µM [inhibitor, partial curve] | 
O=C(CN1C(=O)COc2ccc(S(=O)(=O)Nc3ccccc3)cc21)NCc1ccccc1Cl | inconclusive: 2.51 µM [activator, full curve, poor fit] | 
